Assay [1] has as its target Flag-HA-DCAF8L1 (wild type) (human) (UniProt A6NGE4). Nature of the assay: co-IP; lysates of 293T cells expressing control or FH-D8L1, anti-FLAG M2 agarose; lysis in NETN-400, diluted to 150 mM NaCl, washed with NETN-150; immunoblot. In general terms: In western blotting, separated proteins are transferred to a membrane and probed.
In assay [2] the target is DCAF8L1 mutant (R317H, R365H, MT) (human) (UniProt A6NGE4). Nature of the assay: co-IP; DCAF8L1 wild type (WT) and mutant (MT) pulled down and analysed by immunoblot; cells and resin not stated.
Assay [3] concerns the target DCAF8L1 (endogenous, HCC1954) (human (endogenous in HCC1954)) (UniProt A6NGE4). Nature of the assay: co-IP; HCC1954 lysate, IP with control IgG or antibody against DCAF8L1 (D8L1-519) on Protein G agarose; 150 mM NaCl; immunoblot.
Assay [4] has as its target BARD1 (endogenous, HCC1954) (human (endogenous in HCC1954)) (UniProt Q99728). Briefly: co-IP; HCC1954 lysate, IP with control IgG or antibody against BARD1 or BRCA1 on Protein G agarose; 150 mM NaCl; immunoblot for DCAF8L1.
Assay [5] has as its target BRCA1 (endogenous, HCC1954) (human (endogenous in HCC1954)) (UniProt P38398). The assay is described as above.

The chains behind the UniProt entries cited, without tags or fusion partners. Where a name states a change or a piece, a line headed by the entry shows the natural chain unless it says otherwise.
UniProt A6NGE4: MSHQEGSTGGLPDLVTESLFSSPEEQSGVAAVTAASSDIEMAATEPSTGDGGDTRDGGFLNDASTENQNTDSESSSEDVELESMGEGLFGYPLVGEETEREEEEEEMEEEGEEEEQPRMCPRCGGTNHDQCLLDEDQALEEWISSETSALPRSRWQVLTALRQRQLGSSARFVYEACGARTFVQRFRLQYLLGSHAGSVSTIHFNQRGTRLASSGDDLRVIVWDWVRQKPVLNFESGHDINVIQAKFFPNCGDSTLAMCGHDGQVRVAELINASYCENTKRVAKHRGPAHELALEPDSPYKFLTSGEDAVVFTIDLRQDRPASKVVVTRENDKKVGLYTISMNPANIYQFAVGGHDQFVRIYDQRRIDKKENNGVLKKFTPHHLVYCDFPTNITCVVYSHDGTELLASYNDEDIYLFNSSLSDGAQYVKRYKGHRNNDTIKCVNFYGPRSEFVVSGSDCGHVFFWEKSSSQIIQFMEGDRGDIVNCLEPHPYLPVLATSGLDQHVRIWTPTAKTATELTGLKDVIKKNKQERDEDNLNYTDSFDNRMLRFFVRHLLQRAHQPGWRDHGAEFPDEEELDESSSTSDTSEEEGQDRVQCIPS
UniProt Q99728: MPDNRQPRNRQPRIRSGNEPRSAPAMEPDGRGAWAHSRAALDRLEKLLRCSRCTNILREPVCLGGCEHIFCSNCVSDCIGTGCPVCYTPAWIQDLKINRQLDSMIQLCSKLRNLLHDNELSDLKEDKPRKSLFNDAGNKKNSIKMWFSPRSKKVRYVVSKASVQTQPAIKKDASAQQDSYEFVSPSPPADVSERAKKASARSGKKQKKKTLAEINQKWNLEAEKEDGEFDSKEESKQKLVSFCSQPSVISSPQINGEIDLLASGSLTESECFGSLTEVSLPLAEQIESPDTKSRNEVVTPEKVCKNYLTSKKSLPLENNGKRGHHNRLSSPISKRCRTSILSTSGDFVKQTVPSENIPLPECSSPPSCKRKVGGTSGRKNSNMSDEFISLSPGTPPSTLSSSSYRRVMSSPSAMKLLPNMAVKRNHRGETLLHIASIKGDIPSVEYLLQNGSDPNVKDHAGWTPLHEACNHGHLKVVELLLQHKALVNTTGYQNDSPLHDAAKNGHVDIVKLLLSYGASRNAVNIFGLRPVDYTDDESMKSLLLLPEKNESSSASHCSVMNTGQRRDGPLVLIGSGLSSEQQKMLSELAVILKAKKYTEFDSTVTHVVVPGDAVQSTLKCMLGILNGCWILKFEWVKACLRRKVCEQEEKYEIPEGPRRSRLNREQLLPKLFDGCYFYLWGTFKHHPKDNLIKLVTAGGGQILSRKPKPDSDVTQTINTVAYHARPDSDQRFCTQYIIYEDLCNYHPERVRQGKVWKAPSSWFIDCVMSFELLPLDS
UniProt P38398: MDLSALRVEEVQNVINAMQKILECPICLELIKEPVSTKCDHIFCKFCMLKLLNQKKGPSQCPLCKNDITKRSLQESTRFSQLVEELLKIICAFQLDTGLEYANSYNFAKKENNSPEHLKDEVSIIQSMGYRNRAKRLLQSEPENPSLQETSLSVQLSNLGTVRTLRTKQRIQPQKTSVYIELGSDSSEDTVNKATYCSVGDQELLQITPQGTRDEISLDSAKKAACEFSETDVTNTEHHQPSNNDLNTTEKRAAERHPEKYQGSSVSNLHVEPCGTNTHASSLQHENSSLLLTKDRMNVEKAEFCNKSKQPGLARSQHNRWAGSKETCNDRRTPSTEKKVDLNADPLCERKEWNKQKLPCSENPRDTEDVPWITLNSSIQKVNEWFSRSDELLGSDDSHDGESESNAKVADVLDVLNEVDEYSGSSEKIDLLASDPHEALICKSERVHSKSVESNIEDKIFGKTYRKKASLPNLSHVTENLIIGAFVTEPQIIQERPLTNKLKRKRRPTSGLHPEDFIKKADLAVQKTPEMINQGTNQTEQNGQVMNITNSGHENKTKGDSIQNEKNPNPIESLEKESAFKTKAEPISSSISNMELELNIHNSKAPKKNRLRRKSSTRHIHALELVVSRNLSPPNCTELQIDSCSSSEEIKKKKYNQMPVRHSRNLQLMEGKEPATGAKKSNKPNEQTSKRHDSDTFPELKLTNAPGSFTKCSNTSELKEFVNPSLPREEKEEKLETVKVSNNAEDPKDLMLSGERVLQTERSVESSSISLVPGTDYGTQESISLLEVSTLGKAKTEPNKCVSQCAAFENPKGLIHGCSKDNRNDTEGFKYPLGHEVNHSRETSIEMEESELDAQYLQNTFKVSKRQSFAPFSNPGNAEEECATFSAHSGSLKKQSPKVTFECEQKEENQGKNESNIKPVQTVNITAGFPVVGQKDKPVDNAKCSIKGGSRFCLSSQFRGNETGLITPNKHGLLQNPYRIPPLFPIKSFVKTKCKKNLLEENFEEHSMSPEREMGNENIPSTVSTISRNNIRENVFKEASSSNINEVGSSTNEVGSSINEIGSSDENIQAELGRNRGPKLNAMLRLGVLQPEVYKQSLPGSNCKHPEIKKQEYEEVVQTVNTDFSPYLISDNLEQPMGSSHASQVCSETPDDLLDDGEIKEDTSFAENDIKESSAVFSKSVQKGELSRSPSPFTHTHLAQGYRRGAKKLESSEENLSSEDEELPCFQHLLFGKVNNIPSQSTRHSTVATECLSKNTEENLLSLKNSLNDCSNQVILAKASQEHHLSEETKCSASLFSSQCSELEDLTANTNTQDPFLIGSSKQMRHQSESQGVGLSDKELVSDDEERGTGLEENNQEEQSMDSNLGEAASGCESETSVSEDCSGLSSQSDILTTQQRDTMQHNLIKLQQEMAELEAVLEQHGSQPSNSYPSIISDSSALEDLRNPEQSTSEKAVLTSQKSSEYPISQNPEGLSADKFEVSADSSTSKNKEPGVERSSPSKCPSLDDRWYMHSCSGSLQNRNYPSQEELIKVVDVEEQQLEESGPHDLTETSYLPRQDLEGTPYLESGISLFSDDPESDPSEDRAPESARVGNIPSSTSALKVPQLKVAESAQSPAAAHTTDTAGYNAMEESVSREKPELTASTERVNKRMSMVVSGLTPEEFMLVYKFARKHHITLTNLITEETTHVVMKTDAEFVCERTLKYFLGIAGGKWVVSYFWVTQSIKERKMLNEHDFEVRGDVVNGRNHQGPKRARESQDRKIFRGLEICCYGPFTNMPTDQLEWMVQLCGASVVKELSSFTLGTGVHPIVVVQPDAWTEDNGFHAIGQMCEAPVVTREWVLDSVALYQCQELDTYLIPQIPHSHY
UniProt Q13619: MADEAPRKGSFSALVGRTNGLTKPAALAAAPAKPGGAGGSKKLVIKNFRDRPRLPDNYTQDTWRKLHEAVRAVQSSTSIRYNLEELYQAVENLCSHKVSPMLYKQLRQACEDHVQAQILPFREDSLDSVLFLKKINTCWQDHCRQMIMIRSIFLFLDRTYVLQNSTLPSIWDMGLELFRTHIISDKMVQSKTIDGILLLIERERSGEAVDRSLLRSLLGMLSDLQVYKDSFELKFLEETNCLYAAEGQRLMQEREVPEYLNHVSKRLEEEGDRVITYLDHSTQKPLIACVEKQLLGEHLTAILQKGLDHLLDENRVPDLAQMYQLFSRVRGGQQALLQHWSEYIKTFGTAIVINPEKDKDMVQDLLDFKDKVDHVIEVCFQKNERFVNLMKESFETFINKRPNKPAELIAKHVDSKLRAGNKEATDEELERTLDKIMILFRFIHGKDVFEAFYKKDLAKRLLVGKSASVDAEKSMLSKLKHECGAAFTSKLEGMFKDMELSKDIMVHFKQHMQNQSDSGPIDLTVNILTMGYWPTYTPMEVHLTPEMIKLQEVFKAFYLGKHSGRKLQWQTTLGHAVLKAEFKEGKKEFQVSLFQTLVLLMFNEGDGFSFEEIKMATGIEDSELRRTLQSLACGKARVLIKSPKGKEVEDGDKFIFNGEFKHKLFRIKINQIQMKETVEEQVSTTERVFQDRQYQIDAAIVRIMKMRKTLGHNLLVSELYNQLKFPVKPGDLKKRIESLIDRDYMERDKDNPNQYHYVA
UniProt Q13620: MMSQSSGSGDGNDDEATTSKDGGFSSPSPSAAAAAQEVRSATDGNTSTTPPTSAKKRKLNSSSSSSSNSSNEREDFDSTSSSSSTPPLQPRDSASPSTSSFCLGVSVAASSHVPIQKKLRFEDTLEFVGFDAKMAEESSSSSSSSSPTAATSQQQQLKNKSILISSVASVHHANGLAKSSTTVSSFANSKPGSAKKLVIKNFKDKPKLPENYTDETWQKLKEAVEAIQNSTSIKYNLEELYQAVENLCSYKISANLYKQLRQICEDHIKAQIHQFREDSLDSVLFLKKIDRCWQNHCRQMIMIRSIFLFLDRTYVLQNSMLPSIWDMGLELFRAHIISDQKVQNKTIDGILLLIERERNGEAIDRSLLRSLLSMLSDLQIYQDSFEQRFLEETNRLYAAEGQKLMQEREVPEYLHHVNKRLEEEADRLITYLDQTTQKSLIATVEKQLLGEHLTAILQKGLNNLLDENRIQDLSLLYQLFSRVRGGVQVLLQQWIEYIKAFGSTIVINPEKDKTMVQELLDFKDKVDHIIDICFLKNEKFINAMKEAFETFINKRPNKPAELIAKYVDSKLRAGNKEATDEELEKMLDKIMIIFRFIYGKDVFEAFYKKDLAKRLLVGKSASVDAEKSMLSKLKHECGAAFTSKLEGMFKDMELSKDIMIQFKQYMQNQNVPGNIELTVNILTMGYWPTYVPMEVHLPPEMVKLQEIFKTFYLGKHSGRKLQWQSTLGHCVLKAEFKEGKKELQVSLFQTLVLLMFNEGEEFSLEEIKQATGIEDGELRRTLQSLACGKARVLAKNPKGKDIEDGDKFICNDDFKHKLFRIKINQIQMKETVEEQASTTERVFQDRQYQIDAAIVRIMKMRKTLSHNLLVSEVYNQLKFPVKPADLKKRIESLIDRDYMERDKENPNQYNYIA
UniProt Q16531: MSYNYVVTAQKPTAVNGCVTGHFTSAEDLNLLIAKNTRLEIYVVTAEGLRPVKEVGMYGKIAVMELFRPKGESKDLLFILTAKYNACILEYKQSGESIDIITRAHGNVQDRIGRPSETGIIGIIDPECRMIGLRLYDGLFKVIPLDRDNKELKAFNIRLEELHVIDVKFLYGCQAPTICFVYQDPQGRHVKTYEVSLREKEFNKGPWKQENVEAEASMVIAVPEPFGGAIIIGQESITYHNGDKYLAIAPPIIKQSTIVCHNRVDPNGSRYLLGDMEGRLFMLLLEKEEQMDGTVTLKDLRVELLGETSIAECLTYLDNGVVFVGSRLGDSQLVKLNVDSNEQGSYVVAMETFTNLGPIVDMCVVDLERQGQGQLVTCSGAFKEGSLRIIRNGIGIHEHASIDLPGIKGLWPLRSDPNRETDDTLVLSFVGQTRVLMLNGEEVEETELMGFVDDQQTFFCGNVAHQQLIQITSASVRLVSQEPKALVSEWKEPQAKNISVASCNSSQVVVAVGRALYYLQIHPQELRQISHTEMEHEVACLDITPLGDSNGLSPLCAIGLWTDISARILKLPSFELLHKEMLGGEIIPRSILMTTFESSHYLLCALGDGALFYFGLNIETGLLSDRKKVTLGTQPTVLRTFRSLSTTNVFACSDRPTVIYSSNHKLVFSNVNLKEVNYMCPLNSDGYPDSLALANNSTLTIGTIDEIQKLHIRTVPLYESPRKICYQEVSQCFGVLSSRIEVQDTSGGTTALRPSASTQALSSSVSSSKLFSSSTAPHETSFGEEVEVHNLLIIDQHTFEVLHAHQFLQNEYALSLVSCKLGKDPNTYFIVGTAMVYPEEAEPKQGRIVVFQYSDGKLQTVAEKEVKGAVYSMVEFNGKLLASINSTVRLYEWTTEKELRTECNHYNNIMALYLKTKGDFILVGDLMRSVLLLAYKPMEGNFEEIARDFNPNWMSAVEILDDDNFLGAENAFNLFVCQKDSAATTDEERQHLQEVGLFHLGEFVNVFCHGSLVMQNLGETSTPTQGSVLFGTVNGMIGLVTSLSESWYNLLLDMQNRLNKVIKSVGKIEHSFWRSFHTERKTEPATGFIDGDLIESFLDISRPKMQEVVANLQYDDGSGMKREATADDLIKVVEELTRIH

The results in this text go back to publication PMC8898372.

Results are given in words; binding and its absence hold for the method and conditions named. In cells and extracts the contact can be indirect. Some entries that bind do so weakly or less than the wild type.

Turning to “CUL4A (endogenous, 293T) (from UniProt Q13619 1-759)”, the binding result in assay [1] is recorded as “binds”; in assay [2], “no binding”.
Consider “CUL4A (endogenous, HCC1954) (from UniProt Q13619 1-759)”, for which the binding entry in assay [3] is recorded as “binds”.
On to “CUL4B (endogenous, 293T) (from UniProt Q13620 1-913)”, for which the binding entry in assay [1] is recorded as “binds”.
As for “CUL4B (endogenous, HCC1954) (from UniProt Q13620 1-913)”, the binding result in assay [3] was “binds”.
As to “DCAF8L1 (endogenous, HCC1954) (from UniProt A6NGE4 1-600)”, the binding result in assay [4] and in assay [5] was “binds” in each case.
“DDB1 (endogenous, 293T) (from UniProt Q16531 1-1140)”: the binding entry in assay [1] is listed as “binds”; in assay [2], “no binding”.
“DDB1 (endogenous, HCC1954) (from UniProt Q16531 1-1140)”: the binding entry in assay [3] is listed as “binds”.
